# Data as given in PubChem BioAssay AID1645882 (National Center for Advancing Translational Sciences (NCATS), 2021).
# Out of some 16,000 compounds screened, about 120 (0.75%) were called active. Inconclusive results (about 4%) are left out. Calls follow the shape of the dose curve; as a rule, active = well fitted inhibition curve with a large enough effect; inconclusive = small, poorly fitted or top-dose-only effect; inactive = no such curve, though single readings can be large or run the other way. This is one part of the list.
# Molecular target: Rap guanine nucleotide exchange factor 3 (Homo sapiens) (UniProt O95398)
# Chain of UniProt O95398 (O95398 whole entry, looked up): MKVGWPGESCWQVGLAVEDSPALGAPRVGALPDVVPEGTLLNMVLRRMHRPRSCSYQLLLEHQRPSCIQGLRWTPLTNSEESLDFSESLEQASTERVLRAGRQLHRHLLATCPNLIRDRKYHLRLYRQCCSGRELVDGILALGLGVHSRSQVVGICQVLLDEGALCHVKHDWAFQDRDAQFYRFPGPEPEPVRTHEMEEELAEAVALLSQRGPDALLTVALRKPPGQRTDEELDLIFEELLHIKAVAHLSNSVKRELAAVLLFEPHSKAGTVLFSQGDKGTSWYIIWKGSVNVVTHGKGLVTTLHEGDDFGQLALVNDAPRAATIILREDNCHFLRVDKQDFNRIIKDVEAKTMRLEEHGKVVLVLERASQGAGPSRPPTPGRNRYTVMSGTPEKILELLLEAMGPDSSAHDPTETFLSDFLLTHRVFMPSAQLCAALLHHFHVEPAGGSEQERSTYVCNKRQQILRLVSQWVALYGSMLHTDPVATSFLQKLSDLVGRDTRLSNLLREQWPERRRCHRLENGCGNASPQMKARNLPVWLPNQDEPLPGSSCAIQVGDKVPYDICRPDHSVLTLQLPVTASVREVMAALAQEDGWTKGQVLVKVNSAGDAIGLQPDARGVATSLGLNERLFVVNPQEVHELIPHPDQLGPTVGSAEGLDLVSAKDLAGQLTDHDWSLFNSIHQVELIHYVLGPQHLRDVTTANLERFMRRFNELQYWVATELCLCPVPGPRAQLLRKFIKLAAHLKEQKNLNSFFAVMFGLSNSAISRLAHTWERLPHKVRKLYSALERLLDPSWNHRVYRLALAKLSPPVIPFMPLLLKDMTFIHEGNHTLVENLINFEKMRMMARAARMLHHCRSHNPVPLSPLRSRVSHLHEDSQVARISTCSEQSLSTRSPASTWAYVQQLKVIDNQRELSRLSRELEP
# Experiment: Validation qHTS for antagonist of cAMP-regulated guanine nucleotide exchange factor 3 (EPAC1);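 also: plate controls were DMSO for no effect and ATA control for full effect; nearly all actives have a fitted effect of over 75% in size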
# Conditions: EPAC1 Rap1B-BODIPY-GDP exchange, fluorescence; series mostly up to 150 µM; activity change, negative = inhibition: at the top concentration
# Method in brief: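 Nucleotide exchange followed as fluorescence loss when BODIPY-GDP leaves Rap1B (480 nm excitation, 540 nm emission), read at 5 min intervals over 30 min. Reaction: 100 nM EPAC1, 250 nM RAP1B-BODIPY-GDP, 50 uM GDP; ATA and DMSO define normalization.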
row,Compound,"activity change, negative = inhibition"
1,O=C(NCCc1nnc2n1CCN(CC1CC=CCC1)CC2)c1ccc(F)cc1 (centres undefined),inactive: 8.11%
2,COC(=O)c1cc(CNC(=O)c2ccccc2F)cc(NC(=O)c2ccccc2OC)c1,inactive: 4.39%
3,CN(C)c1ncc2nc(-c3cccc(C#N)c3)c(=O)n(C[C@H]3CCCO3)c2n1,inactive: -1.09%
4,CNc1nc(-c2cccnc2)nc2ccccc12,inactive: -20.5%
5,C[C@]12O[C@H](C[C@]1(O)CO)n1c3ccccc3c3c4c(c5c6ccccc6n2c5c31)CNC4=O,inactive: -1.92%
6,C[N+]1(CC(=O)c2ccc(Br)cc2)CCOCC1,inactive: 16.3%
7,Cc1nc2ccc(NC(=O)Nc3ccnc4cccnc34)cc2o1,inactive: -10.7%
8,C[N+]1(CC(=O)c2ccc(Cl)c(Cl)c2)CCOCC1,inactive: 17.2%
9,C[C@@H](N)C(=O)O,inactive
10,COc1ccc2c(c1)CCc1cnc(-n3ncc(C(=O)NCCN4CCOCC4)c3C)nc1-2,inactive: 15%
11,CC(C)Oc1ccc(C(=O)NCC2Cc3cc(Cl)cc(-c4ncccn4)c3O2)cc1 (centres undefined),inactive: -23.3%
12,CC(=O)Nc1ccccc1-c1nc(CNC(=O)c2ccc(-c3ccccc3F)cc2)c(C)o1,inactive: 7.36%
13,Cc1ncc2c(c1CNC(=O)/C=C/c1cccs1)CCN(C(=O)C1CC(=O)OC13CCCCC3)C2 (centres undefined),inactive: 17.6%
14,O=C(c1csnn1)N1CCC2(CC1)CCN(c1ccncc1)CC2,inactive: -1.32%
15,CSCCC(N)C(=O)O (centres undefined),inactive: 21.4%
16,CCCCCCCCCCCCCCCCCCN(CCCCCCCCCCCCCCCCCC)c1ccccc1,inactive: 9.69%
17,O=C(Nc1nccs1)[C@@H]1CC=C[C@@H]2CCN(Cc3ccc(Cl)c(Cl)c3)C(=O)[C@@H]21,inactive: 2.65%
18,CCCCNC(=O)O[C@H]1C[C@@H]2CCN3C(=O)CCC[C@H]([C@H]1Cc1ccccc1)[C@H]23,inactive: 11.1%
19,COC(=O)C1CCCCN1Cc1nc(N2CCCCC2)c2cc(OC)c(OC)cc2n1 (centres undefined),inactive: 9.84%
20,O=c1c(CCc2ccccc2)nc2cnc(N3CCNCC3)nc2n1Cc1ccc(F)cc1,inactive: 16.1%
21,Nc1ccc(Cc2ccc(C=O)cc2)cc1,inactive: 9.12%
22,O=C(O)CCC(=O)O,inactive: 2.09%
23,CCO[C@H]1[C@H](NC(=O)c2cccnc2)c2ccccc2C12CCN(C(=O)c1cc(C)n(C)n1)CC2,inactive: 7.04%
24,NC1=NCC2c3ccccc3Cc3ccccc3N12 (centres undefined),inactive
25,Cc1nc2cc(NC(=O)[C@@H]3C[C@@H](Sc4ccccn4)CN3Cc3cccc(Cl)c3)ccc2s1,inactive: 0.13%

row,Compound,"activity change, negative = inhibition"
1,O=C(C[C@H]1C(=O)N(c2ccccc2)C[C@@H]1Cc1ccccc1)Nc1ccccc1,inactive: -22.5%
2,c1ccc2c(Nc3ccncc3)nc(-c3ccc4c(c3)OCO4)nc2c1,inactive: -5.69%
3,CNc1nc(-c2ccc(N(C)C)cc2)nc2ccccc12,inactive: 16%
4,COc1ccc(CN2[C@@H](CC(C)=O)c3cc(C(F)(F)F)ccc3S2(=O)=O)cc1,inactive: -2.84%
5,C=C1C[C@@]23CC4C5[C@@]6(C)C[C@H](O)C[C@@]57C2[C@H](O)[C@@H]1[C@H](O)[C@H]3[C@H]7N4C6,inactive: -3.68%
6,CO[C@H]1[C@H](NC(=O)c2ccco2)c2ccccc2C12CCN(Cc1ccc3cccc(F)c3n1)CC2,inactive: 9.04%
7,COc1ccc(Oc2ncc3nc(C)c(=O)n(Cc4ccc(F)cc4)c3n2)cc1,inactive: -16.2%
8,Cc1c(C(=O)N2CCCCC2)sc2ncnc(NCCc3ccccn3)c12,inactive: -6.58%
9,Cn1c(=O)c(-c2ccccc2)nc2cncnc21,inactive: 13.1%
10,Cc1c(C(=O)NCc2cccc(F)c2)sc2ncnc(NCC3CCCO3)c12 (centres undefined),inactive: 9.02%
11,CN(C)Cc1ccccc1-c1nc(NC2CC2)c2ccccc2n1,inactive: -6.94%
12,COc1ccccc1-c1cncnc1NCc1cccnc1,inactive: 18.5%
13,COC(=O)CC1C(C)(C)C(=O)C2CC3C4=CC(=O)OC(c5ccoc5)[C@]4(C)CCC3[C@@]1(C)C2=O (some centres undefined),inactive: -1.93%
14,COc1ccccc1CNc1ncnc2ccc(-c3ccccc3OC)cc12,inactive: -1.19%
15,CN1[C@H](CC(=O)c2ccccc2)CCC[C@H]1C[C@@H](O)c1ccccc1,inactive: 14.6%
16,Cc1[nH]c2ccccc2c1/C=C/c1nccc2ccccc12,inactive: 19.2%
17,COc1ccc(CN2C[C@H](Sc3nc4ccccc4[nH]3)C[C@H]2C(=O)N(C)C)c2ccccc12,inactive: 6.16%
18,CS(=O)(=O)N1CCC2(CC1)CN(Cc1ccccc1)C2,inactive: 6.57%
19,C=C[C@@H]1c2cc(C)ccc2N(S(=O)(=O)c2ccc(C)cc2)[C@H](c2ccccc2)C1(C#N)S(=O)(=O)c1ccccc1 (some centres undefined),inactive: -7.48%
20,Cc1cccc(Nc2ccncc2S(=O)(=O)NC(=O)NC(C)C)c1,inactive
21,COc1ccc(C(=O)N2CCC[C@@]3(CCN(c4ncccn4)C3)C2)cc1,inactive: 26.1%
22,O=c1c(CCc2ccccc2)nc2cnc(Nc3ccccc3)nc2n1Cc1cccs1,inactive: 5.16%
23,CN(C)C(=O)c1ccc(-c2cc(NCc3ccccc3)ncn2)cc1,inactive: 12.3%
24,O=S(=O)(c1ccccc1)N1CCC2(CCN(c3ccccc3)CC2)CC1,inactive: 11.6%
